In publication PMC8888634:
These are yes or no findings as the source states them, for the method shown. Binding seen in cells or lysates may run through a third protein. Some results given as binding are weak or reduced against the parent protein; the word gives no strength.

Chains of the proteins cited; added tags and fusions are not shown.
UniProt P51532: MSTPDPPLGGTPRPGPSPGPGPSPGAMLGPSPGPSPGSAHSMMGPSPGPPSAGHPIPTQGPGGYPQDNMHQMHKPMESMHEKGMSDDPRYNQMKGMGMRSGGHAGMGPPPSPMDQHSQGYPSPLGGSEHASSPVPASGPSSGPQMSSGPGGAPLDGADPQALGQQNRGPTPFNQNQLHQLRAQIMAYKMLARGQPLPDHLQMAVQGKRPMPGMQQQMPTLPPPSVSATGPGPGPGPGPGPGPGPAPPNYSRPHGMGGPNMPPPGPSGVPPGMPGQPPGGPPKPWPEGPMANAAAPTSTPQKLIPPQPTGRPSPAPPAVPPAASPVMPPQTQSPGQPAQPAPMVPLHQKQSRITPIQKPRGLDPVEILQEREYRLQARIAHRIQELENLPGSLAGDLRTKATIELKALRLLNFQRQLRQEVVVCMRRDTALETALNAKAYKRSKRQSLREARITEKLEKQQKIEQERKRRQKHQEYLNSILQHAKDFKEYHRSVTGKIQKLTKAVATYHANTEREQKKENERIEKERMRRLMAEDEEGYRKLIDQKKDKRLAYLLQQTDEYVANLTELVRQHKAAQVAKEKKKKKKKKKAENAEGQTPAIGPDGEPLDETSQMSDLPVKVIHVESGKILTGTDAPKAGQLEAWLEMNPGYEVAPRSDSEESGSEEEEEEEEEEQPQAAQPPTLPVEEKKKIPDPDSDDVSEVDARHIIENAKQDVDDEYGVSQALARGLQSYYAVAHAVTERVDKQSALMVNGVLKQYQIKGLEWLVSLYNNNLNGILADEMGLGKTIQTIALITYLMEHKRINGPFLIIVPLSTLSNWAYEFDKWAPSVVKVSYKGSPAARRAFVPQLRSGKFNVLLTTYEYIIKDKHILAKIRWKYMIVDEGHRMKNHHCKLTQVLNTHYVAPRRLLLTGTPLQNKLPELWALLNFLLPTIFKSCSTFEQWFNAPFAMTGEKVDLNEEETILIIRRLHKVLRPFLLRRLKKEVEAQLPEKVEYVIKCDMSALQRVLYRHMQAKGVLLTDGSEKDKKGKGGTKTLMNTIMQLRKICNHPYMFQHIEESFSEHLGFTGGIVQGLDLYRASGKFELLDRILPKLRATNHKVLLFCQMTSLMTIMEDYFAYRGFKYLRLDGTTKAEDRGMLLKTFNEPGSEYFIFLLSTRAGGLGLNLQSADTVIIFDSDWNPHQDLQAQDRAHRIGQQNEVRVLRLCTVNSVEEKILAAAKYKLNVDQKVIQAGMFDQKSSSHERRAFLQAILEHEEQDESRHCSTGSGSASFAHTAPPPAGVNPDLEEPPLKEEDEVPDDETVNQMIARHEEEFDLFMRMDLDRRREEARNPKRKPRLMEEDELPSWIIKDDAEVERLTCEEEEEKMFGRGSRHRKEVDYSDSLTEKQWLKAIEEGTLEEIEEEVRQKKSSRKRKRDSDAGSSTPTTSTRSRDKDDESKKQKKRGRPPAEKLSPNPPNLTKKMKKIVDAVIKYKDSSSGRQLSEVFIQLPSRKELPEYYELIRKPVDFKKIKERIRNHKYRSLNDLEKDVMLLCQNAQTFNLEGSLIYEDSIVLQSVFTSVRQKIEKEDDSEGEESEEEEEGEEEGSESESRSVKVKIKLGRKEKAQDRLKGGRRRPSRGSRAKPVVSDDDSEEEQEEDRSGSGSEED

Molecular target: Brg1, the ATPase subunit of the SWI/SNF chromatin remodeling complex, endogenous in prostate cancer cells (human (endogenous in VCaP)) (UniProt P51532)
Assay: co-IP; endogenous proteins, VCaP cells; anti-OTUD6A or anti-Brg1, anti-AR antibodies, IgG as negative control; lysis in EBC buffer (50 mM Tris pH 8.0, 120 mM NaCl, 0.5% NP-40), overnight at 4 °C, washes with NETN buffer; immunoblot

B1: OTUD6A, endogenous in prostate cancer cells (enzyme, UniProt Q7L8S5 1-288)
chain: MDDPKSEQQRILRRHQRERQELQAQIRSLKNSVPKTDKTKRKQLLQDVARMEAEMAQKHRQELEKFQDDSSIESVVEDLAKMNLENRPPRSSKAHRKRERMESEERERQESIFQAEMSEHLAGFKREEEEKLAAILGARGLEMKAIPADGHCMYRAIQDQLVFSVSVEMLRCRTASYMKKHVDEFLPFFSNPETSDSFGYDDFMIYCDNIVRTTAWGGQLELRALSHVLKTPIEVIQADSPTLIIGEEYVKKPIILVYLRYAYSLGEHYNSVTPLEAGAAGGVLPRLL
binding: binds
